The values below come from publication PMC7819943, “Rice protein-binding microarrays: a tool to detect cis-acting elements near promoter regions in rice”.

The other results are listed elsewhere or left out.

In this assay the target is T1, OsWOX13 (Oryza sativa, UniProt Q5QMM3 1-267).
T1 sequence: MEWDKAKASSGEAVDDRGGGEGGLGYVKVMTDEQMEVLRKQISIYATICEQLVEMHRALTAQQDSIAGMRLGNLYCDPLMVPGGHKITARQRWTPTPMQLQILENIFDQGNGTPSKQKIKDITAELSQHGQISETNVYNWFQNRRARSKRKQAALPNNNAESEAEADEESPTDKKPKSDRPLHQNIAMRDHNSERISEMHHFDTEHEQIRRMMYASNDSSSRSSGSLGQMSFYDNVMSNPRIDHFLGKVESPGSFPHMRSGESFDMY
As to the kind of experiment: protein-binding microarray (RPBM); PBS, 2% BSA, 51.3 ng/ul salmon testes DNA, 50 uM zinc acetate, 200 nM TF, 25 C, 1 h; high values mean tight binding. The conditions noted are these: protein: recombinant; tags: N-terminal polyhistidine and DsRed monomer fusion (pET32a); label: CyDye5-dUTP incorporated in the synthesized complementary strand; 3' TTTTT single-stranded linker to array surface; dsDNA, one strand shown. Summed up:
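Using Ni–NTA, transcription factors fused N-terminally to polyhistidine and DsRed were purified after expression in E. coli BL21-CodonPlus. These were incubated at 200 nM with a blocked, double-stranded custom Agilent array for 1 h at 25 °C in a buffer containing 50 µM zinc acetate, and the array was washed. The binding signal is per-feature fluorescence intensity (arbitrary units) on an Axon 4000B scanner.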
For “TTCTGACAGGAATTGAAGTGTAAAATGTTGCCATTCCATACGGAGTCACCTAGTGCAG”, the binding signal is 14800 fluorescence intensity (a.u.).
For “AACAGGACCTTAATTGATTAGAAGAGCATTAATTATTTTACGGAGTCACCTAGTGCAG” the value was 18800 fluorescence intensity (a.u.); for “CCCTCACGACCAATCATGTCCCACCTCTCCCCTCTATATACGGAGTCACCTAGTGCAG”, 5580 fluorescence intensity (a.u.).
As to “CTCGTAGCAAATTAATTAGAACGGCACACATAAATGAGCACGGAGTCACCTAGTGCAG”, the binding signal is 16400 fluorescence intensity (a.u.).
For “CACTAATTCATAACAGATCGAACAGGAACTGTACCCTAAGCGGAGTCACCTAGTGCAG” the value was 7090 fluorescence intensity (a.u.); for “TTCCTGTTTACGACACATAAATAAAGTTAATAATTTGCGGCGGAGTCACCTAGTGCAG”, 3510 fluorescence intensity (a.u.); for “CACCACAATTAATTATCTCAATTTAGTATTTCTTTAATAGCGGAGTCACCTAGTGCAG”, 22900 fluorescence intensity (a.u.).
Regarding “TATTAAATTGACTATAGATGATTTGGAGCTAGTAATTGGCCGGAGTCACCTAGTGCAG”, the binding signal is 36800 fluorescence intensity (a.u.).
As for “CGTCACAACATGGGATTGATTGGTGAGTGGTTAATATTTTCGGAGTCACCTAGTGCAG”, the binding signal was 27100 fluorescence intensity (a.u.).
For “ACATCTATCATTGAAAGGCAACCGATTAGGTTAAATATCACGGAGTCACCTAGTGCAG” the value was 7310 fluorescence intensity (a.u.); for “CATGCCAATTGCAAGTTGATGACTGAATAGGGAATACAATCGGAGTCACCTAGTGCAG”, 3260 fluorescence intensity (a.u.).
For “ATCAATACTTAATTAATTATATATTAATAGATAACCTCATCGGAGTCACCTAGTGCAG” the value was 30900 fluorescence intensity (a.u.).
For “CAGATGAGAATAACGAGAGATTGATATCTCCCCTTTGCCTCGGAGTCACCTAGTGCAG” the value was 7640 fluorescence intensity (a.u.); for “GATTAATTAGGCTTCATAAATTCGTCTCGCAGTTTACAGGCGGAGTCACCTAGTGCAG”, 30800 fluorescence intensity (a.u.); for “GTAAATAAAATCAAACCACTGCACAAGGTCCAGTTTGAGTCGGAGTCACCTAGTGCAG”, 4150 fluorescence intensity (a.u.).
As to “TTTAATTGCAGCCGTTTCGTCCACTCTAATACACAAATCACGGAGTCACCTAGTGCAG”, the binding signal was 10400 fluorescence intensity (a.u.).
As for “TCTCCAATCAATGGTGTCTGGGTTCAGTCACTCCATACGTCGGAGTCACCTAGTGCAG”, the binding signal is 26600 fluorescence intensity (a.u.).
Under “GCTGATGAAACTGATCCATACCGTACCGTACCATTGCCAACGGAGTCACCTAGTGCAG” stands 10500 fluorescence intensity (a.u.); under “CTAAATAGAACATTCAAAATAATCAAATAATAATGGCATGCGGAGTCACCTAGTGCAG”, 10300 fluorescence intensity (a.u.); under “AGAAAACGAATAGATGATGAGATAAAATACATTTCAGGATCGGAGTCACCTAGTGCAG”, 3280 fluorescence intensity (a.u.).
Under “CAAGATTGGCATGTCACCTTTGCAAACAATGCATGTTAGGCGGAGTCACCTAGTGCAG” stands 33000 fluorescence intensity (a.u.).
For “GCTCCGGCGAGGCGAGGTCGGAGATCCCACCGCCGTGTCGCGGAGTCACCTAGTGCAG” the value was 65500 fluorescence intensity (a.u.); for “CGTCCCTAAATAGATTTTGGTTGGATGTGATGCATTCTAGCGGAGTCACCTAGTGCAG”, 4420 fluorescence intensity (a.u.); for “TAATTATATTGGTATTAATCTGAAGTTTTAATTTGTTCCTCGGAGTCACCTAGTGCAG”, 3770 fluorescence intensity (a.u.).
For “ATTTTAATCTAAATTTAAAACCTTCAACTCATATATAATACGGAGTCACCTAGTGCAG”, the binding signal was 3380 fluorescence intensity (a.u.).
Under “GATTAATGATGAAACCCATTCCATAACCCTGGACTAATTCCGGAGTCACCTAGTGCAG” stands 5370 fluorescence intensity (a.u.); under “GTGGCACTGAATCACTGATTGAATTGTACGTATGATCACACGGAGTCACCTAGTGCAG”, 30800 fluorescence intensity (a.u.).
Under “TTTTCTTGATTAATTAAATATAAATTTGCATTTCATTTCACGGAGTCACCTAGTGCAG” stands 16900 fluorescence intensity (a.u.).
For the sequence “TATATATATATATATATATATATATTTCATATGAAACACACGGAGTCACCTAGTGCAG”, the binding signal was 28900 fluorescence intensity (a.u.).
For “TTTGACCAATTTGGCAGTCAACAAAGCAAAGAGTAGTAGGCGGAGTCACCTAGTGCAG”, the binding signal is 3540 fluorescence intensity (a.u.).
Under “CATAATCAAATTACATCTTATTTGTACATATTATTATTCTCGGAGTCACCTAGTGCAG” stands 15500 fluorescence intensity (a.u.).
Under “TTTCGCGTGTACACTAATTATATACATTTATCTATTTATGCGGAGTCACCTAGTGCAG” stands 3740 fluorescence intensity (a.u.); under “GTTAGAAAATTAACAGATGACACCTGAAGTTTAGTTACATCGGAGTCACCTAGTGCAG”, 3800 fluorescence intensity (a.u.); under “GTGGCATTGAACATCAAATTGATCTCATCCCTGGAGCTACCGGAGTCACCTAGTGCAG”, 5210 fluorescence intensity (a.u.).
Under “GCTGATATATTATACTAATATATATGTAATAAACAGTGGTCGGAGTCACCTAGTGCAG” stands 8040 fluorescence intensity (a.u.); under “CCATTGACTGGATTGTAGTATAACAAGATGGATGATGCATCGGAGTCACCTAGTGCAG”, 32700 fluorescence intensity (a.u.); under “TGGAAGTCAAGTCACTAATTGGAAGAAGATGGTGATAATGCGGAGTCACCTAGTGCAG”, 16600 fluorescence intensity (a.u.).
Turning to “TTGAAATTAGAAGATGGACATTATAGTTTGATGAGGAGCACGGAGTCACCTAGTGCAG”, the binding signal is 16900 fluorescence intensity (a.u.).
Under “ATGTTTGATTGCATTTACTGTGTCCCATGAGAGGTAGAGGCGGAGTCACCTAGTGCAG” stands 39200 fluorescence intensity (a.u.); under “TCAAAACTGACAAATAAGTAAAGGGGAGAGAATAATTCGACGGAGTCACCTAGTGCAG”, 3240 fluorescence intensity (a.u.); under “GGATCCATCAATTTAAGTGAAAATTAACGATGAGATTAGACGGAGTCACCTAGTGCAG”, 15600 fluorescence intensity (a.u.).
Take “ATGATAATCATATTTGATTTTAAAATCTTAAGGAATTCAACGGAGTCACCTAGTGCAG”: the binding signal was 15000 fluorescence intensity (a.u.).
